From publication PMC4336329 (PLoS ONE, 2015)
The whole screen tested about 310,000 compounds, of which about 2,200 (0.71%) showed an effect of 50% or more. The effect is printed as a negative number. This is one part of the list.

These compounds were tested against human ether-à-go-go-related gene (hERG) potassium channel (human, UniProt Q12809) (assay: primary screen, population patch clamp on CHO cells stably expressing hERG).
Chain of human ether-à-go-go-related gene (hERG) potassium channel (Q12809 whole entry, looked up): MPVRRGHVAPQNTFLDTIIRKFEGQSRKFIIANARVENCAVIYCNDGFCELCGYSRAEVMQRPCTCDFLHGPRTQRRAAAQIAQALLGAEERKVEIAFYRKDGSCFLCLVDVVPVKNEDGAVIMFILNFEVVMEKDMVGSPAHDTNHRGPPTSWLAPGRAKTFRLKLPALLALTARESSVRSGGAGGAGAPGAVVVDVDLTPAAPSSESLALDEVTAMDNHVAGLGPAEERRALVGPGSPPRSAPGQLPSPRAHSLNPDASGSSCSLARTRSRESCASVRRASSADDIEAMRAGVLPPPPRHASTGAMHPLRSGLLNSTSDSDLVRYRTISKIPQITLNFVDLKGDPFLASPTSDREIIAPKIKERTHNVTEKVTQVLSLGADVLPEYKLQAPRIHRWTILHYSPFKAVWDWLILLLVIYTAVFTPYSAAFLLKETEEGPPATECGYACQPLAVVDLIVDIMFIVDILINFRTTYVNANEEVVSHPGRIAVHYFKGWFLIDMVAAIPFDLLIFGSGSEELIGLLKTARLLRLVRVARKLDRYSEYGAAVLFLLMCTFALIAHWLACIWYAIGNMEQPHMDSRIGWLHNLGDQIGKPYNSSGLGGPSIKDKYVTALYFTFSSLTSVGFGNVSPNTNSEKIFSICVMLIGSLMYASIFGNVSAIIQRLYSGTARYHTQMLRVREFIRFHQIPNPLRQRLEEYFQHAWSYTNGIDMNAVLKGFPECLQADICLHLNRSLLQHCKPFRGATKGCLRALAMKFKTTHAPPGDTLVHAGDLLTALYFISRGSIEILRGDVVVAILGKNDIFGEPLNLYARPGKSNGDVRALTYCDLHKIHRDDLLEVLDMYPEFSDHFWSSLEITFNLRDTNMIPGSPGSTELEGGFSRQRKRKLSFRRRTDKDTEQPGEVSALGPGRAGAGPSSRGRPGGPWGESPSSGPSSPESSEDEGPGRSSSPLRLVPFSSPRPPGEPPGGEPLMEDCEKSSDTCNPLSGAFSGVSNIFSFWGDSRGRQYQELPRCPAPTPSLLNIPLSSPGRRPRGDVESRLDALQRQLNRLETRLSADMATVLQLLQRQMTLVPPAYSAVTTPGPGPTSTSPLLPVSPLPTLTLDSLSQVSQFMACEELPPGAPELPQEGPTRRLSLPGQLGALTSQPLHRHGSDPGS

SMILES	hERG current change (%, negative = inhibition) at 1uM
O=c1oc2ccc(Cl)cc2nc1/C=C(\O)c1ccco1	8.79%
CC(=O)N1CCN(C(=O)c2ccco2)CC1	24.9%
COc1ccc(-c2nc(-c3cccc(C)c3)[nH]c(=O)c2C#N)cc1	2.95%
CS(=O)(=O)N(CCc1ccccc1)CC(=O)N1CCCCC1	2.81%
COc1ccc(S(=O)(=O)N2CCCCC2)cc1NC(=O)C1CCCO1 (stereo not drawn)	2.94%
CSc1cccc(NC(=O)CN(C)S(=O)(=O)c2ccccc2)c1	14.7%
O=C(CNC(=O)c1ccco1)N/N=C/c1ccc(C(=O)O)cc1	10.7%
COc1cccc(/C=C/C(=O)c2ccc[nH]2)c1	11.1%
CCC(c1nnnn1Cc1cccs1)N1CCN(C(=O)c2ccco2)CC1 (stereo not drawn)	-14.1%
CCOc1ccc(NC(=O)CSc2nncn2C)cc1	15.1%
Cc1ccc(Nc2nc(N3CCN(C)CC3)nc(N)c2[N+](=O)[O-])cc1C	-2.03%
CCN(CC(=O)NCc1cccs1)C(=O)c1ccc(NS(=O)(=O)c2cccc([N+](=O)[O-])c2)cc1	-0.0892%
Cn1c(CNS(=O)(=O)c2ccc(Cl)cc2)n[nH]c1=S	15.3%
COC(=O)c1cc2c(ccn2C)n1C	6.95%
CN(Cc1ccc(-n2cccn2)cc1)Cc1nc(-c2cnccn2)no1	-4.67%
COc1cccc(S(=O)(=O)Nc2cccnc2)c1	14.3%
CN(C)CCN(C(=O)C1CCN(S(=O)(=O)c2cccs2)CC1)c1nc2ccc(F)cc2s1.Cl	7.56%
Cc1ccc(OCCCC(=O)Nc2ccc3c(c2)OCCO3)cc1	4.94%
O=S(=O)(/C=C/c1ccccc1)Nc1ccc2c(c1)OCO2	-3.58%
CCCCC(=O)Nc1ccc(C(=O)NCc2ccncc2)cc1	13.6%
CCCOc1ccc(OC(=O)c2ccc(Br)o2)cc1	10.3%
CCCCC(=O)N/N=C/c1c(O)n(C2CC2)c(=S)[nH]c1=O	4.87%
O=C(COC(=O)CCSc1ccc(Cl)cc1)NCc1ccccc1	10.7%
COc1ccccc1CNCc1cc(Br)ccc1OC.O=C(O)C(=O)O	1.94%

SMILES	hERG current change (%, negative = inhibition) at 1uM
Cc1ccc(CNC(=O)CN2C(=O)NC3(CC(C)CC(C)(C)C3)C2=O)cc1 (stereo not drawn)	2.6%
COc1ccc(CCNC(=O)c2ccc3c(c2)N(Cc2ccccc2)CCS3)cc1OC	19.7%
CC1CCCN(S(=O)(=O)c2ccc(-c3ccc(=O)[nH]n3)o2)C1 (stereo not drawn)	4.45%
CCOc1cc(NC(=S)Nc2cccc(OC)c2)c(OCC)cc1NC(=O)C(C)C	10.3%
O=C(COc1cccc(Cl)c1)NCC(c1cccs1)N1CCOCC1 (stereo not drawn)	10.8%
Cc1ccccc1CC1(CO)CCCN(Cc2c(C)nn(C)c2Cl)C1 (stereo not drawn)	-13.8%
CCCCCCCCCCOC(=O)C[N+](C)(C)C/C=C(/C)Cl.[Br-]	-6.77%
Cc1ccc2[nH]cc(S(=O)(=O)c3ccc(F)cc3)c(=O)c2c1	9.95%
O=C(O)c1ccc(/C=C/c2nc3sc4c(c3c(=O)[nH]2)CCC4)cc1	9.67%
CC(C)CNC(=O)c1ccccc1-c1ccccc1C(=O)O	11.7%
CC1(C)CC(NS(=O)(=O)OCC(Cl)(Cl)Cl)c2cc(C#N)ccc2O1 (stereo not drawn)	17.6%
COc1ccc(S(=O)(=O)NC(C(=O)NCCc2ccccn2)C(C)C)cc1 (stereo not drawn)	2.77%
CN(C)Cc1c(C(=O)N/N=C/c2ccc(-c3ccccc3)cc2)nnn1-c1nonc1N	4.79%
O=C(c1cccc(S(=O)(=O)N2CCCCCC2)c1)N1CCN(c2ccccc2F)CC1	-6.53%
O=C(Nc1ccc2c(c1)OCO2)C1(S(=O)(=O)c2ccc(Cl)cc2)CC1	-1.2%
CC1CCN(Cc2csc(N)n2)CC1	3.89%
CCCCC(=O)Nc1cccc(NC(=S)NC(=O)Cc2ccccc2)c1	5.3%
C=CCn1c(CCC(O)COCCC)n[nH]c1=S (stereo not drawn)	8.13%
Cc1cccc(C)c1NC(=O)CSC(=S)N1CCCC1	4.83%
CC(=O)N1CCCc2cc(S(=O)(=O)CCC(=O)N3CCN(c4ccccc4)CC3)ccc21	14.6%
ON1C(c2ccccc2C(F)(F)F)N(O)[C@H]2CCCC[C@H]21 (stereo partly drawn)	10.5%
O=c1[nH]c(=O)n(Cc2ccccc2)c(O)c1C=NCCN1CCOCC1	27%
CC(C)NC(=S)NN=C1CCCCCCCCCCC1	6.64%
CCNC(=O)CSc1nc(-c2ccccc2)cs1	10.7%

SMILES	hERG current change (%, negative = inhibition) at 1uM
CCO[C@@H]1OC(C(N)=O)=C[C@H](c2ccc3c(c2)OCO3)[C@H]1CCCO	9.07%
CC(=O)c1ccc(N2CCN(C(=S)NCCCN(C)C)CC2)cc1	5.89%
Brc1ccccc1CN1CCN(Cc2c[nH]c3ccccc23)CC1.O=C(O)C(=O)O	13.6%
Cc1cc(C)nc(SCc2nnc(SCc3ccccc3Cl)o2)n1	13.9%
CCn1nc(C)c(/C=N/NC(=O)Cn2cncn2)c1C	15.5%
CCOc1ccc(NC(=O)CC2C(=O)Nc3ccccc3N2C(=O)c2ccccc2)cc1 (stereo not drawn)	-7.65%
O=C1C2CCCN2C(c2ccc(F)c(F)c2)N1c1cccc(Cl)c1 (stereo not drawn)	-3.19%
O=C(Nc1ccc(S(=O)(=O)NCC2CCCO2)cc1)c1cnccn1 (stereo not drawn)	14.1%
O=C(O)COc1ccccc1/C=C1\SC(=O)N(Cc2ccc(F)cc2)C1=O	-3.1%
O=S(=O)(Nc1ccc2c(c1)OCO2)c1cccc(Br)c1	8.92%
CCOC(=O)CN(C(=O)CSc1nnc(-c2ccc(OC)c(OC)c2)o1)c1ccccc1	4.75%
COc1ccc(-c2c(-c3ccc(OCC(=O)NN)cc3O)n[nH]c2C(F)(F)F)cc1	3.42%
CCOc1ccccc1CNCc1ccc(F)cc1.Cl	7.9%
Cc1ccc(-c2cn(-c3ccccc3)c(=S)[nH]2)cc1C	12.8%
CN1CCN(c2nc3c(c(=O)n(C)c(=O)n3C)n2Cc2ccccc2F)CC1	4.13%
Cc1ccc(NC(=O)N2CCCCC2)cc1[N+](=O)[O-]	13.9%
O=C(CSc1nnc2ccc(-c3cccnc3)nn12)Nc1ccc(F)cc1	-39.3%
COc1ccc(Cc2nnc(N)s2)cc1OC	4.83%
CCCCn1c(N)c(N(CCC(C)C)C(=O)C2=NN(c3cc(C)ccc3C)C(=O)CC2)c(=O)[nH]c1=O	8.06%
CN(C(=O)c1ccc(S(=O)(=O)N2CCCC2)cc1)C1CCS(=O)(=O)C1 (stereo not drawn)	10.8%
C#CCOc1ccc2c3c(c(=O)oc2c1)CCCC3	15.3%
COc1ccc(NC(=O)CN2CCN(CC#N)CC2)cc1	-44.9%
Cc1ccc(N/N=C/c2ccc3c(c2)OCCO3)cc1Cl	3.76%
COc1ccc(N2C(=O)CC(Sc3ncccc3C(=O)O)C2=O)cc1 (stereo not drawn)	11.2%

SMILES	hERG current change (%, negative = inhibition) at 1uM
CN(C(=O)c1ccccc1-c1ncc[nH]1)C1CCCN(Cc2ccccc2F)C1 (stereo not drawn)	10.3%
Cc1cc(C)c(C(=O)COC(=O)c2cccc(S(=O)(=O)NCc3ccccc3)c2)cc1C	0.192%
Nc1nc(Nc2ccccc2F)nc(NC2CCCCC2)c1[N+](=O)[O-]	11.8%
CCOC(=O)CC1C(=O)NCCN1C(=O)Nc1ccccc1 (stereo not drawn)	4.87%
CCOC(=O)CC1C(=O)NCCN1C(=O)c1ccc(F)cc1F (stereo not drawn)	0.319%
Cn1c(NC(=O)/C=C/c2ccco2)cc(=O)n(C)c1=O	11.9%
Cc1nc2cc(NS(=O)(=O)c3c(C)c(C)cc(C)c3C)ccc2s1	5.6%
Cc1ccc(Nc2nc(C(=O)NCC3CCCO3)cs2)cc1 (stereo not drawn)	2.78%
c1ccc(CCc2nn3c(C4COc5ccccc5O4)nnc3s2)cc1 (stereo not drawn)	1.42%
Cc1onc(-c2ccccc2)c1C(=O)N/N=C/c1c[nH]c2ccccc12	15.2%
COc1ccccc1CNC(=O)CN(c1ccc(C)cc1)S(=O)(=O)c1c(C)nn(C)c1C	-6.7%
CCc1ccc(C(=O)CSc2ncn[nH]2)cc1	4.26%
COc1ccc2cc(Br)ccc2c1CC(=O)N(C)C	6.8%
CCCS(=O)(=O)c1c(S(=O)(=O)CCC)c2c(C(N)=O)cccn2c1C(=O)c1ccc(F)cc1	13.4%
COC(CC(=O)NNC(=S)Nc1ccccc1)OC	2.82%
S=c1nc(C23CC4CC(CC(C4)C2)C3)[nH][nH]1	11.6%
CC(C)(C)n1cc(C(=O)c2ccccc2OCCCF)cn1	4.39%
COc1ccc(S(=O)(=O)Nc2c(F)cccc2F)cc1	5.22%
O=C(NCc1cccnc1)c1ccc(-c2cc3ccccc3oc2=O)cc1	12.4%
Cc1cccc(OCC(=O)Nc2ccncc2)c1	6.41%
CCOC(=O)c1ccc(NC(=S)N(CCN(C)C)C(C)c2ccncc2)cc1 (stereo not drawn)	5.67%
